Results on 44 molecules are retold here after paper PMC4336329 (PLoS ONE, 2015).

Each structure is given as a SMILES string. Among all 310,000 compounds or so, about 14,000 (4.5%) showed an effect of 50% or more. Effects have a minus sign here. The list shows a part of the results.
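Note: peak tail current of the secondary pulse compared with the same well before compound.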

Sequence of human ether-à-go-go-related gene (hERG) potassium channel (Q12809 whole entry, looked up): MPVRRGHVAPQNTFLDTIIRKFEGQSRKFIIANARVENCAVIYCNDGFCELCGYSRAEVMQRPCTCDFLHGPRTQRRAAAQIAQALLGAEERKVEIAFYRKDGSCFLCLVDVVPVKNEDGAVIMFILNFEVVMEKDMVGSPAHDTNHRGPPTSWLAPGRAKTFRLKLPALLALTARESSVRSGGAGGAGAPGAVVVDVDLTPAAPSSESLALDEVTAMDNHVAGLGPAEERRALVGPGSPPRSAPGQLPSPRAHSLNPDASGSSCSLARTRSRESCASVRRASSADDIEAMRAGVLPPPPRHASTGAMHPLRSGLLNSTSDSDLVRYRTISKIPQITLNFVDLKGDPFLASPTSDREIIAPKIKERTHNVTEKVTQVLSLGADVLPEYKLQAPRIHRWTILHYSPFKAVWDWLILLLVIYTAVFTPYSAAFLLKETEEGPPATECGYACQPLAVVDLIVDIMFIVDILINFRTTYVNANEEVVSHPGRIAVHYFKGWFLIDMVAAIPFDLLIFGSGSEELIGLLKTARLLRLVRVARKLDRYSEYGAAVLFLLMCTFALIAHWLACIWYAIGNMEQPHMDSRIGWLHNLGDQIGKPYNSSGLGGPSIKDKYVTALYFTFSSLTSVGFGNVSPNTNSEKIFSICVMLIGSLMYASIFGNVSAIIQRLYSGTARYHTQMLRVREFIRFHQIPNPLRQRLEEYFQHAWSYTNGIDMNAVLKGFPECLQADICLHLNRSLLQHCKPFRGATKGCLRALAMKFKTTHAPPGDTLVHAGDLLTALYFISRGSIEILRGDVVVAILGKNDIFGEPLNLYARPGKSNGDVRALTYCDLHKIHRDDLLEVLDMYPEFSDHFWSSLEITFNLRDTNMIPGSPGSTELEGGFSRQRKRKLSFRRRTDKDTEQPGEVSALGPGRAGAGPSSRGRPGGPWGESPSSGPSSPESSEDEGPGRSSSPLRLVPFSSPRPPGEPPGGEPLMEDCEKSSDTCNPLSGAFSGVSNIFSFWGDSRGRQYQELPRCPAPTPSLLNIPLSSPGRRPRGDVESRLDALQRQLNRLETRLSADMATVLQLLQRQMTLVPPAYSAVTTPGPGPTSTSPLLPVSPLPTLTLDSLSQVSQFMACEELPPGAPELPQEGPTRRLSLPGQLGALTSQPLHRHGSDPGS

The test addresses human ether-à-go-go-related gene (hERG) potassium channel (human, UniProt Q12809). Description: primary screen, population patch clamp on CHO cells stably expressing hERG.
For `CCC(CC)C1C(C#N)=C(N)Oc2n[nH]c(C)c21` (centres unmarked), the “hERG current change (%, negative = inhibition) at 10uM” value is -5.96%. For the molecule `O=C(COC(=O)c1cnccn1)c1ccc(OC(=O)c2ccccc2)cc1`, the “hERG current change (%, negative = inhibition) at 10uM” value is 1.51%.

As to `Cc1conc1NC(c1cccs1)c1ccc2cccnc2c1O` (centres unmarked), the “hERG current change (%, negative = inhibition) at 10uM” value was -13.7%. For `Cc1cc(=O)n2nc(N3CCCC(C(=O)NCc4ccc5c(c4)OCO5)C3)sc2n1` (centres unmarked), the “hERG current change (%, negative = inhibition) at 10uM” value is listed as -25.3%. To `CCCCN(CC)CCCNC(=O)c1cc2cc3ccc(C)cc3nc2o1` belongs -53.4%; to `Oc1nc(Nc2cccc(Cl)c2)sc1/C=C1\C=Nc2ccccc21`, 4.36%; to `O=C(Nc1ccon1)c1nc[nH]c1C(=O)NCc1ccccc1`, 12.7%. Next, `COCCN(C(=O)COC(=O)c1ccc2c(c1)OCCO2)c1c(N)n(Cc2ccccc2)c(=O)[nH]c1=O`: -1.5%; `CCc1cc2c3c(c(=O)oc2cc1OCC(=O)OC)CCCC3`: -0.568%. To `COC(=O)c1c(-c2c(Cl)cccc2Cl)noc1NC(=O)NN1CCCCC1` belongs -14.7%; to `O=C1C2C(C(=O)N1/N=C/c1ccco1)C1C=CC2C12CC2` (centres unmarked), -2.95%. Turning to `COc1cc2cc(Oc3ccc4ccc(=O)oc4c3)c(=O)oc2cc1OC(C)=O`, the “hERG current change (%, negative = inhibition) at 10uM” value is given as 0.234%. Next, `COc1ccc(-n2nc(C(=O)NCC(=O)NCCC3=CCCCC3)c3ccccc3c2=O)cc1`: -2.65%; `Cc1ccc(CNC(=O)c2ccc(CNc3c(N4CCCC4)c(=O)c3=O)cc2)cc1`: -2.17%. `COc1ccccc1Cc1nc(-c2ccc(C)cc2)no1`: the “hERG current change (%, negative = inhibition) at 10uM” value is reported as -11.8%. As to `OCC1(CCc2ccccc2)CCN(Cc2ccc3nsnc3c2)CC1`, the “hERG current change (%, negative = inhibition) at 10uM” value is listed as -77.7%. To `CCOC(=O)CC1C(=O)NCCN1S(=O)(=O)c1ccc(Br)cc1` (centres unmarked) belongs -3.86%; to `CC(C)(CC(=O)O)CC(=O)Nc1ccc2c(c1)ncn2CCc1ccccc1`, 15.8%; to `CC(C)(C)c1csc(NNC(=O)c2ccc(Br)cc2)n1`, 11.4%. As to `O=C(Nc1cccc(F)c1)NC1CC2CCCC(C1)N2C1CC1` (centres unmarked), the “hERG current change (%, negative = inhibition) at 10uM” value was -8.34%. Next, `COc1ccc(-c2cc(C(=O)OCC(=O)c3c(N)n(C)c(=O)n(C)c3=O)c3ccccc3n2)cc1`: -34.6%; `CCCOc1ccc(C(=O)Nc2ccc(N3CCN(C(=O)c4ccco4)CC3)cc2)cc1`: 13.2%.

On to `CC(NC(=O)CN1CCN(S(=O)(=O)c2ccc(Br)cc2)CC1)c1ccccc1` (centres unmarked), for which the “hERG current change (%, negative = inhibition) at 10uM” value is given as -36.9%. To `COCCN1CCc2[nH]c(=S)[nH]c(=O)c2C1` belongs -9.22%; to `O=C(Nc1ccc(-c2cn3c(n2)SCC3)cc1)c1ccco1`, 10.2%. To `CN(C)CCCN(C(=O)c1ccc(S(=O)(=O)N(C)C2CCCCC2)cc1)c1nc2ccc(Br)cc2s1.Cl` belongs 2.39%; to `COC(=O)Cn1cc(/C=C2\C(=O)NC(=O)N(c3ccccc3)C2=O)c2ccccc21`, 6.36%.

Regarding `CCCn1nnnc1NC(=O)CSc1ccc(Cl)cc1`, the “hERG current change (%, negative = inhibition) at 10uM” value is recorded as 5.42%. Next, `COc1ccc([N+](=O)[O-])cc1NC(=O)C(C)Sc1ccccc1` (centres unmarked): -18.3%; `COc1ccc(C2C3(C#N)C(N)=NC(OC)(OC)C23C#N)cc1` (centres unmarked): -53.4%; `Cc1ccccc1-c1nn(-c2ccc(F)cc2F)cc1CNCCCN(C)C`: 2.75%. As for `CNc1c([N+](=O)[O-])cnn1-c1ccc(C)cc1`, the “hERG current change (%, negative = inhibition) at 10uM” value was -2.24%. For `CCC(Sc1nc2ncnc(N)c2[nH]1)C(=O)O` (centres unmarked), the “hERG current change (%, negative = inhibition) at 10uM” value turned out to be 44.4%. Consider `OCCNc1ncnc2ccc(Br)cc12`, for which the “hERG current change (%, negative = inhibition) at 10uM” value worked out at 10.1%. `Cl.O=C(CNCc1ccccc1)NC1C2CC3CC(C2)CC1C3` (centres unmarked): the “hERG current change (%, negative = inhibition) at 10uM” value is given as 4.5%. Next, `COc1ccccc1OCC(=O)Nc1cc(Cl)ccc1N1CCCCC1`: -3.56%; `O=C(COC(=O)c1cc(=O)[nH]c2ccccc12)NCc1ccc(Cl)cc1`: -3.34%. Next, `Cc1ccc(NC(=O)CN2CCN(Cc3ccccc3)CC2)cc1Cl`: -46%; `CN(Cc1nc(-c2cccs2)no1)CC1COCCO1` (centres unmarked): 1.17%; `CCOC(=O)CSc1nc(-c2ccccc2)nc2c1oc1ccccc12`: 6.49%. Next, `O=C(CSc1ccccc1)N1CCN(c2ccccn2)CC1`: -24.6%. On to `O=C(O)c1ccc(S(=O)(=O)N2CCC(n3nnc4cc(C(F)(F)F)ccc43)CC2)cc1`, for which the “hERG current change (%, negative = inhibition) at 10uM” value is recorded as -37.7%. As to `COC(=O)C1=C(C)NC(=S)NC1c1ccc(OCC(=O)N2CCCCC2)c(OC)c1` (centres unmarked), the “hERG current change (%, negative = inhibition) at 10uM” value was 12.9%.

For the molecule `O=C(Nc1ccc([N+](=O)[O-])cn1)C1CCCCC1`, the “hERG current change (%, negative = inhibition) at 10uM” value was 2.46%.
